The other results are listed elsewhere or left out. Repeats are few or missing, and single values can be far off.
Test system: LOXIMVI
Experiment: cell count relative to DMSO control; melanoma cells; higher = more viable cells
Settings: library dose: low library concentration; 72 h
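Also: cell number obtained by counting DAPI-stained nuclei in high-throughput microscope images with image analysis software, screen run in 1,536-well plates.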

**Q.** With `COc1ccc(COc2ccc(Cc3cnc(N)nc3N)cc2OC)cc1` + Cc1cc(SCc2sc(-c3ccc(C(F)(F)F)c(F)c3)nc2C)ccc1OCC(=O)O [GW0742] (first compound 1 µM, partner dose 2 µM) as the compound, how does the cell count read?
**A.** The cell count was 112%.

**Q.** `Clc1ccc(Nc2nnc(Cc3ccncc3)c3ccccc23)cc1` [vatalanib] + C[As](C)SC[C@H](NC(=O)CC[C@H](N)C(=O)O)C(=O)NCC(=O)O [Darinaparsin] (first compound 2 µM, partner dose 0.4 µM) was tested. Which cell count did it give?
**A.** The cell count was 70.9%.

**Q.** How did the cell count turn out when `COc1ccc(COc2ccc(Cc3cnc(N)nc3N)cc2OC)cc1` + C/C(O)=C(\C#N)C(=O)Nc1cc(Br)ccc1Br [LFM-A13] (first compound 1 µM, partner dose 2 µM) was run?
**A.** Its cell count is 69.9%.

**Q.** Which cell count does the source give for `COCC[n+]1c2c(n(Cc3cnccn3)c1C)C(=O)c1ccccc1C2=O` + Cc1cc(SCc2sc(-c3ccc(C(F)(F)F)c(F)c3)nc2C)ccc1OCC(=O)O [GW0742] (first compound 0.0004 µM, partner dose 2 µM) here?
**A.** The cell count was 97.3%.

**Q.** With `O=C(CCCCCCC(=O)Nc1ccccc1)NO` [vorinostat] + Cc1cc(SCc2sc(-c3ccc(C(F)(F)F)c(F)c3)nc2C)ccc1OCC(=O)O [GW0742] (first compound 0.08 µM, partner dose 2 µM) as the compound, how does the cell count read?
**A.** The cell count was 105%.

**Q.** How did the cell count turn out when `Cc1cc(Nc2cc(N3CCN(C)CC3)nc(Sc3ccc(NC(=O)C4CC4)cc3)n2)n[nH]1` [Tozasertib] + C[C@]12O[C@H](C[C@]1(O)CO)n1c3ccccc3c3c4c(c5c6ccccc6n2c5c31)CNC4=O [Lestaurtinib] (first compound 0.006 µM, partner dose 0.004 µM) was run?
**A.** Its cell count is 123%.

**Q.** `O=C(O)c1ccc2c(c1)nc(Nc1cccc(Cl)c1)c1ccncc12` + C[As](C)SC[C@H](NC(=O)CC[C@H](N)C(=O)O)C(=O)NCC(=O)O [Darinaparsin] (first compound 0.4 µM, partner dose 0.4 µM) was tested. Which cell count did it give?
**A.** The cell count was 71.2%.

**Q.** For `Cn1c(Nc2ccc(C(F)(F)F)cc2)nc2cc(Oc3ccnc(-c4ncc(C(F)(F)F)[nH]4)c3)ccc21` + Cc1cc(SCc2sc(-c3ccc(C(F)(F)F)c(F)c3)nc2C)ccc1OCC(=O)O [GW0742] (first compound 0.08 µM, partner dose 2 µM), which cell count is on record?
**A.** Its cell count is 90.9%.

**Q.** How did the cell count turn out when `C#Cc1cccc(Nc2ncnc3cc(OCCOC)c(OCCOC)cc23)c1` [erlotinib] + O=C(Oc1ccc([N+](=O)[O-])cc1)N1CCC(C(O)(c2ccc3c(c2)OCO3)c2ccc3c(c2)OCO3)CC1 [JZL184] (first compound 0.8 µM, partner dose 1 µM) was run?
**A.** Its cell count is 148%.

**Q.** How did the cell count turn out when `Cc1cc(Nc2cc(N3CCN(C)CC3)nc(Sc3ccc(NC(=O)C4CC4)cc3)n2)n[nH]1` [Tozasertib] + Cn1cc(C2=C(c3cn(C4CCN(Cc5ccccn5)CC4)c4ccccc34)C(=O)NC2=O)c2ccccc21 [Enzastaurin] (first compound 0.006 µM, partner dose 0.8 µM) was run?
**A.** Its cell count is 100%.

**Q.** With `O=C(CCCCCCC(=O)Nc1ccccc1)NO` [vorinostat] + C/C(O)=C(\C#N)C(=O)Nc1cc(Br)ccc1Br [LFM-A13] (first compound 0.08 µM, partner dose 2 µM) as the compound, how does the cell count read?
**A.** Its cell count is 82.7%.

**Q.** `Oc1cc(-c2nc(-c3ccccc3)[nH]c2-c2ccncc2)ccc1Cl` + C/C(O)=C(\C#N)C(=O)Nc1cc(Br)ccc1Br [LFM-A13] (first compound 0.2 µM, partner dose 2 µM) was tested. Which cell count did it give?
**A.** The cell count was 149%.

**Q.** With `c1cc(-c2cnn3cc(-c4ccc(OCCN5CCCCC5)cc4)cnc23)ccn1` [Dorsomorphin] + O=C(Oc1ccc([N+](=O)[O-])cc1)N1CCC(C(O)(c2ccc3c(c2)OCO3)c2ccc3c(c2)OCO3)CC1 [JZL184] (first compound 0.4 µM, partner dose 1 µM) as the compound, how does the cell count read?
**A.** Its cell count is 126%.

**Q.** For `CN1CCN(c2ccc3nc(-c4c(N)c5c(F)cccc5[nH]c4=O)[nH]c3c2)CC1` [Dovitinib] + C[As](C)SC[C@H](NC(=O)CC[C@H](N)C(=O)O)C(=O)NCC(=O)O [Darinaparsin] (first compound 0.1 µM, partner dose 0.4 µM), which cell count is on record?
**A.** Its cell count is 117%.

**Q.** With `Cc1cc(Nc2cc(N3CCN(C)CC3)nc(Sc3ccc(NC(=O)C4CC4)cc3)n2)n[nH]1` [Tozasertib] + C[As](C)SC[C@H](NC(=O)CC[C@H](N)C(=O)O)C(=O)NCC(=O)O [Darinaparsin] (first compound 0.006 µM, partner dose 0.4 µM) as the compound, how does the cell count read?
**A.** The cell count was 80.9%.

Reference: the supplement of paper PMC4604168 (melanoma cell lines)
